Experimental data reported in PubChem BioAssay AID588453 (National Center for Advancing Translational Sciences (NCATS), 2011).
The campaign covered roughly 390,000 compounds. About 4,000 (1%) were called active. The inconclusive results got no clear call from the source; some entries with a clear call stand among them for comparison. Calls follow the shape of the dose curve; as a rule, active = well fitted inhibition curve with a large enough effect; inconclusive = small, poorly fitted or top-dose-only effect; inactive = no such curve, though single readings can be large or run the other way. Potencies beside an inconclusive call are fits to weak or partial responses and may not hold up.

Each molecule was assayed against Thioredoxin reductase 1, cytoplasmic (Rattus norvegicus) (UniProt O89049) (assay: qHTS Assay for Inhibitors of Mammalian Selenoprotein Thioredoxin Reductase 1 (TrxR1): qHTS). Settings: recombinant rTrxR1, NADPH fluorescence consumption, selenite substrate; series mostly up to 114 µM; activity change, negative = inhibition: at the top concentration.
Chain of UniProt O89049 (O89049 whole entry, looked up): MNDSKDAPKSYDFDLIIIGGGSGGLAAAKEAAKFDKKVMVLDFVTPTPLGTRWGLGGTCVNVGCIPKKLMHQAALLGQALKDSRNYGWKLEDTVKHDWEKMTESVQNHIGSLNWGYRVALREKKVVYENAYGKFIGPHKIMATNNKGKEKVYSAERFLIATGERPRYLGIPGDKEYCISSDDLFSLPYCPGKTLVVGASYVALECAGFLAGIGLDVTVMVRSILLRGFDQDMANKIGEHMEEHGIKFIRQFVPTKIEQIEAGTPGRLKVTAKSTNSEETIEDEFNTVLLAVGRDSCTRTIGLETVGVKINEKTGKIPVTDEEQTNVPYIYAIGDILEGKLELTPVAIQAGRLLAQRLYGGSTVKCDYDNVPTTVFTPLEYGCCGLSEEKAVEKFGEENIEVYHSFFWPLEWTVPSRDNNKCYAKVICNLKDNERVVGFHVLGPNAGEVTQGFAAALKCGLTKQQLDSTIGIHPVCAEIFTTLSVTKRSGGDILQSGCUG
Method in brief: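 Rat TrxR1 (90 nM in the dispensed reagent) was pre-reduced with 400 uM NADPH for 5 min at room temperature, then incubated with compound for 15 min. After 400 uM selenite was added, NADPH fluorescence (Ex 340/Em 450 nm) was followed for 8 min.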
% is scaled to controls: 0 for no effect and ±100 for the full control effect; potency is read from the fitted curve at half-maximal effect; tags tell the direction and shape of the fitted curve.
Also: nearly all actives have a fitted effect of over 65% in size.

| SMILES | Potency | activity change, negative = inhibition |
| --- | --- | --- |
| Cc1ccc(N2C(=O)CC(Sc3ncn[nH]3)C2=O)cc1C (stereo not drawn) | inconclusive: 1.58 µM [inhibitor, partial curve, poor fit] | – |
| CCOP(=O)(OCC)C(NC(=O)Nc1ccc(Cl)c(Cl)c1)C(N)=O (stereo not drawn) | – | inactive: -12.6% |
| CCOc1ccc(NC(=O)CN2CCN(CC(=O)c3ccc(OC)c(OC)c3)CC2)cc1 | inconclusive: 25.1 µM [inhibitor, single point] | – |
| COc1ccccc1CN(C(=O)Cc1cccs1)C(C(=O)NC1CCCC1)c1ccncc1 (stereo not drawn) | inconclusive: 31.6 µM [inhibitor, partial curve, poor fit] | – |
| Cc1ccc2oc(C(=O)N3CCN(Cc4ncccc4C)CC3)c(C)c2c1 | inconclusive: 89.1 µM [inhibitor, partial curve, poor fit] | – |
| Cc1ccccc1CS(=O)(=O)Cc1ccc(C(=O)NCc2cccnc2)o1 | inconclusive: 70.8 µM [inhibitor, partial curve] | – |
| CCN1CCN(CC(=O)Nc2cc(S(=O)(=O)N(CC)c3ccccc3)ccc2Cl)CC1 | – | inactive: 5.33% |
| CCOC(=O)C1=C(N)n2c(s/c(=C\c3ccco3)c2=O)=C(C(=O)OCC)C1c1ccco1 (stereo not drawn) | inconclusive: 63.1 µM [inhibitor, partial curve, poor fit] | – |
| Cc1cc(C)cc(NC(=O)N2CCN(C)c3ncccc32)c1 | – | inactive: 9.59% |
| CCOC(=O)C1(C)C=C(Nc2ccc(O)cc2)C(=O)N1c1ccc(O)cc1 (stereo not drawn) | inconclusive: 70.8 µM [inhibitor, partial curve, poor fit] | – |
| COc1cc(C2C(C(=O)c3cccs3)=C(O)C(=O)N2Cc2ccco2)cc(OC)c1OC (stereo not drawn) | inconclusive: 44.7 µM [inhibitor, partial curve] | – |
| COC(=O)C1=C(C)NC(=S)NC1c1sccc1C (stereo not drawn) | – | inactive: 12.6% [at 57.1 µM] |
| CN1C(=O)/C(=C/c2ccc(O)c([N+](=O)[O-])c2)NC1=S | inconclusive: 79.4 µM [inhibitor, partial curve] | – |
| COc1ccc(/C=N/OCC(=O)Nc2cc(C)on2)cc1OC | – | inactive: -8.19% |
| CC(=O)Nc1nonc1-c1nnc(SCc2cccc(Br)c2)n1C | – | inactive: 17% |
| Cc1ccc(C2Nc3ccccc3C(=O)N2Cc2ccco2)cc1 (stereo not drawn) | inconclusive: 17.8 µM [inhibitor, single point] | – |
| Cc1cc(NC(=O)c2ccc([N+](=O)[O-])o2)ccc1NC(=O)c1ccco1 | inconclusive: 50.1 µM [inhibitor, partial curve] | – |
| Cc1cc(N)n2nc(-c3ccccc3)cc2n1 | – | inactive: 5.06% |
| Cc1ccc(-c2nc(S(=O)(=O)c3ccc(C)cc3)c(N3CCOCC3)o2)cc1 | inconclusive: 7.94 µM [inhibitor, partial curve] | – |
| COc1ccc2c(=O)c(-c3ccc(C)cc3)c(-c3ccccc3)oc2c1 | inconclusive: 70.8 µM [inhibitor, partial curve] | – |
| Cc1c(Cl)cccc1-c1ccc(CNCc2ccccn2)o1 | inconclusive: 70.8 µM [inhibitor, partial curve, poor fit] | – |
| CC(Oc1ccc(Cl)cc1)C(=O)N/N=C/c1ccsc1 (stereo not drawn) | – | inactive: 2.26% [at 57.1 µM] |

| SMILES | Potency | activity change, negative = inhibition |
| --- | --- | --- |
| Cc1ccnc(NC(c2cc(C)ccc2O)c2ccc3cccnc3c2O)c1 (stereo not drawn) | active: 5.01 µM | – |
| COc1ccc(S(=O)(=O)N(C(=O)c2ccncc2)c2ccc3oc(C)c(C(C)=O)c3c2)cc1 | inconclusive: 17.8 µM [inhibitor, partial curve, poor fit] | – |
| Cn1c(N)c(C#N)c(C#N)c1-c1ccccc1 | – | inactive: 17.7% [at 57.1 µM] |
| N#C/C(=C\c1ccc(OCCN2CCOCC2)cc1)C(=O)Nc1ccccc1F | inconclusive: 79.4 µM [inhibitor, single point] | – |
| Cc1ccc(C(=O)c2cc(C)sc2NC(=O)CN2CCN(C(=O)c3ccco3)CC2)cc1 | inconclusive: 22.4 µM [inhibitor, partial curve] | – |
| CCC(C)n1c(=N)c(C(=O)NC2CCCCC2)cc2c(=O)n3cc(C)ccc3nc21 (stereo not drawn) | inconclusive: 89.1 µM [inhibitor, single point] | – |
| O=C(CSc1nnc(-c2ccco2)o1)c1ccccc1 | inconclusive: 20 µM [inhibitor, full curve, poor fit] | – |
| COc1ccc(Cl)cc1NC(=O)c1c(NCc2cccs2)sc2c1CCC(C)C2 (stereo not drawn) | inconclusive: 20 µM [inhibitor, partial curve, poor fit] | – |
| CCN1C/C(=C/c2cccc([N+](=O)[O-])c2)C(=O)/C(=C/c2cccc([N+](=O)[O-])c2)C1 | inconclusive: 10 µM [inhibitor, full curve] | – |
| FC(F)(F)c1cc(-c2ccco2)nc(NCc2ccccc2)n1 | inconclusive: 22.4 µM [inhibitor, partial curve] | – |
| Cn1c(NC(=O)/C=C/c2ccccc2)cc(=O)n(C)c1=O | inconclusive: 79.4 µM [inhibitor, partial curve, poor fit] | – |
| CC1=Nc2ccccc2/C1=C\c1nc(-c2ccc(C(F)(F)F)cc2)oc1O | inconclusive: 25.1 µM [inhibitor, single point] | – |
| CN1CCN(c2ncnc3c2[nH]c2ccc(F)cc23)CC1 | – | inactive: 11.5% [at 57.1 µM] |
| Cn1cnc([N+](=O)[O-])c1Nc1ccccc1O | – | inactive: -11.4% |
| O=C1CCC/C(=N/Nc2ccc(Cl)cc2)C1 | inconclusive: 17.8 µM [inhibitor, full curve] | – |
| C[N+]1(CC2COC3(CCCCC3)O2)CCCCC1 (stereo not drawn) | – | inactive: 21.2% |
| COC(=O)C1=C(C)NC(=O)NC1c1ccc(-c2ccc(F)cc2)o1 (stereo not drawn) | inconclusive: 31.6 µM [inhibitor, single point] | – |
| O=C(Cc1ccccc1)NC(=S)Nc1ccc(OC(F)F)cc1 | inconclusive: 50.1 µM [inhibitor, partial curve] | – |
| COc1cc2c(NC3CCN(C(C)C)CC3)nc(N3CCCN(C)CC3)nc2cc1OCCCN1CCCC1 | inconclusive: 56.2 µM [inhibitor, single point] | – |
| COc1cccc(OCc2cc(C3Nc4ccccc4C(=O)N3Cc3ccco3)ccc2OC)c1 (stereo not drawn) | inconclusive: 89.1 µM [inhibitor, single point] | – |
| CC1Cc2cc(S(=O)(=O)CCC(=O)NC3CCCCC3)ccc2N1C(=O)C1CC1 (stereo not drawn) | – | inactive: 10.2% |
